This note sets out measurements from the RNAGym collection of RNA variant scans (doi:10.7554/elife.90254).

The chains are these.
B1: LINE1-mini (parent)
chain: GGCAGAGCUCAACACAGCGUGGCAAAGUGGCUGUGGCUAGACUGCC

The source gives no read counts; variants with many changes may rest on few reads.

The variants in this data set derive from B1. The experiment in a line: self-cleavage, relative activity (ratio to wild type); higher = more cleavage; in vitro, sequencing; the parent is a self-cleaving ribozyme.
Turning to A14C C15U G36C, the self-cleavage was determined as 0.02.
To A14G G19U G30A G44U belongs 0.05; to A14C U20A A25U C37A U43C, 0.06; to A14G A26U G40C C46U, 0.
To A14C A16G C37U belongs 0.03; to A14G G29U U32C, 0.03; to A14C U20G A39U C45G C46G, 0.
Regarding A14C A16U A41U, the self-cleavage was 0.04.
As to A14C A25G G30A C45A C46G, the self-cleavage amounted to 0.01.
With A14C C18A G27U C37A, the self-cleavage was determined as 0.03.
On to A14G G29U G30U G40A, for which the self-cleavage worked out at 0.08.
For A14C G27A C31A A39C C46U the value was 0.
As to A14C C15G G21A G22C C31A, the self-cleavage stood at 0.01.
To A14C C23U C46A belongs 0.12; to A14C C37U G44A, 0.05.
For A14G C23U C37G C46A, the self-cleavage turned out to be 0.01.
To A14C C18A U28G G29C U32A C37U belongs 0.
To A14G U34C G36C C42U G44U belongs 0.14.
For A14G C23A G36A A41U C45A the value was 0.12; for A14G C31G G33A U34C, 0.03; for A14G U20C A25G, 0.22.
A14C G17U C23A: the self-cleavage was determined as 0.
With A14G G21A G22U U32A, the self-cleavage is 0.02.
To A14C A16G A25G G35U belongs 0.07; to A14G G35C C42U, 0.02.
A14G G22A G29A G33U: the self-cleavage stood at 0.07.
As for A14C G33U G44A, the self-cleavage was 0.05.
For A14C G22U A24G the value was 0.12; for A14G G17U C18A, 0.12; for A14C C15U G19A, 0.08.
Consider A14C G30U C37U, for which the self-cleavage worked out at 0.05.
For A14C G40A C42U the value was 0.14; for A14G G27C G33U, 0.05.
For A14C U38G U43C the value was 0.
For A14G G17U A41U C42U the value was 0.12; for A14C G29U G36U C37A G44A, 0.2; for A14G G17U G35C, 0.02.
As to A14C U28G A39C, the self-cleavage is 0.27.
To A14G C15A A26C G33C U34G belongs 0.04; to A14G C15G G17A C23U, 0.08.
Turning to A14C A25G C31U G35A, the self-cleavage turned out to be 0.
As for A14G G21U U28G U38A, the self-cleavage was 0.12.
Turning to A14G A26U C31A C42U, the self-cleavage is 0.03.
For A14C G19A C45G the value was 0.04; for A14C G33C U43A G44U, 0.01.
For A14C A39C A41G, the self-cleavage came to 0.01.
In the case of A14G G17U G35A G36U, the self-cleavage was found to be 0.05.
As to A14C A26C G35U, the self-cleavage came out at 0.21.
On to A14C U28A U32G G44A, for which the self-cleavage was found to be 0.09.
A14C A39U A41C: the self-cleavage stood at 0.01.
For A14C A26G A39C the value was 0.01; for A14G G19A G22A A24C G27U G30U G44U, 0.07.
Consider A14C A16U G29C C45A, for which the self-cleavage stood at 0.04.
A14G G36A G40C: the self-cleavage is 0.01.
With A14G G17U U32G G33A C45A, the self-cleavage turned out to be 0.04.
To A14G G27A G35C belongs 0.01.
To A14C A26C G27A belongs 0.04; to A14G G17U G21U G22A U28A C31U, 0.03.
To A14C G21A G33U belongs 0.02.
In the case of A14G A26U G29A, the self-cleavage was found to be 0.09.
As for A14G C23U U34C, the self-cleavage was 1.46.
For A14G U20C G21A G27A G29U the value was 0.04; for A14C C18G G27A U28A G29C, 0.02; for A14C G29U G40A U43G, 2.9.
Take A14C G17C G33C C37G G44C: the self-cleavage is 0.01.
For A14C C15U C31U G44C the value was 0.01.
In the case of A14G G17A C31U, the self-cleavage amounted to 0.13.
A14C G19A U20G A39G: the self-cleavage is 0.05.
Consider A14G G22U A26C G44A, for which the self-cleavage stood at 0.06.
As to A14G G22C U43C, the self-cleavage came out at 0.1.
On to A14C A26U G35A G44C C46A, for which the self-cleavage was 0.03.
To A14G C15A U38G belongs 0.1; to A14G G27C U32A G35C, 0.03.
For A14C C23U A24C the value was 0.22; for A14G G29U U43A, 0.24; for A14G G17U G44A, 0.05.
To A14G C18G G33U belongs 0.06; to A14C G22U A41C C45A, 0.08.
On to A14G G30C G40A, for which the self-cleavage was found to be 0.5.
To A14C A16U C18U belongs 0.03; to A14G C15U C42U C46G, 0.02; to A14G C15A C45G, 0.02.
Take A14G G21U G27C U34A C42A: the self-cleavage came to 0.02.
For A14G C15A G22C, the self-cleavage is 0.21.
As to A14C A26U C31U C46U, the self-cleavage worked out at 0.02.
Consider A14C G35U U38C G44U, for which the self-cleavage came out at 0.05.
Consider A14C U38A C46U, for which the self-cleavage came out at 0.
As for A14C A26G U32C G36U C42G, the self-cleavage is 0.01.
In the case of A14C C18A C42G, the self-cleavage turned out to be 0.04.
Consider A14G U20G G22C A39U, for which the self-cleavage came to 0.02.
For A14C G21A G30A, the self-cleavage was determined as 0.3.
To A14C G22U G44U belongs 0.12.
As for A14C G35U A39U, the self-cleavage stood at 0.05.
Consider A14C C18G U20G, for which the self-cleavage was 0.
For A14C G35A G44C the value was 0.01.
Consider A14C C23U A39G, for which the self-cleavage was determined as 0.05.
Turning to A14C C18U U34C U43A, the self-cleavage was found to be 0.2.
A14C C23U A24C G29A: the self-cleavage was 0.03.
Take A14G A16C G17U: the self-cleavage came out at 0.05.
For A14G C18U G27U U32C C37A G40U the value was 0.01; for A14C G22A A25G G29A C31U G35U, 0.04; for A14G G27A U34G C46U, 0.26.
For A14G A16U G22C C46A the value was 0.03; for A14C C45U C46G, 0.14; for A14C G29U U34G, 0.06.
For A14G A26C C37A the value was 0.01; for A14G C15G G27U, 0.19.
As to A14C C23G U43C, the self-cleavage is 0.01.
To A14C G30C C46A belongs 0.09; to A14C G27C C31A C46A, 0.01.
To A14C A16G C42A belongs 0.07; to A14G G17U U38A, 0.04.
For the variant A14C G17A G35U, the self-cleavage amounted to 0.05.
Take A14G A24U C37A: the self-cleavage stood at 0.05.
Take A14G U32G G33U C45U: the self-cleavage is 0.
To A14C G33C C45A belongs 0.02; to A14C C15A U32G C42U, 0.02.
For A14G C18G U43C the value was 0.04.
To A14C A26C C31U A41G U43A belongs 0.
On to A14C A16C G17U, for which the self-cleavage turned out to be 0.09.
For A14C G19C A39G the value was 0; for A14G G19A G22U C31A G35U, 0.22; for A14G A16U G19A A25C A39C, 0.
In the case of A14C C18G C45U, the self-cleavage came out at 0.02.
With A14G U32G G36A A39G U43C, the self-cleavage amounted to 0.01.
To A14C C18A U20A C23U U38A belongs 0.08; to A14C U38C G44U, 0.09; to A14G G22U C37U, 0.04.
In the case of A14C C37G U43C C45G, the self-cleavage was 0.08.
On to A14C G27A G36A, for which the self-cleavage was 0.1.
For A14C C18U C31U the value was 0.01.
For A14C G19C C42U the value was 0.04; for A14C U34C C45G, 0.05.
As for A14G U32G G33C A39G G44A C45A, the self-cleavage turned out to be 0.03.
Regarding A14G A16C G33U, the self-cleavage came out at 0.01.
To A14C C15U C37G belongs 0.03.
Take A14G G29A A39U A41U: the self-cleavage was 1.07.
For A14C U20C A25U U28G C37U the value was 0.
For A14C C23U A24U C31G, the self-cleavage was found to be 0.02.
For A14C G35A C46U the value was 0.
To A14G C15G G27C G35A belongs 0.01; to A14G G35U G44U, 0.13.
On to A14C A26U U38G G44A, for which the self-cleavage was 0.
To A14G A26U C31A belongs 0.01; to A14C C23G A26U C37A, 0.01; to A14G C15G U28A G33U, 0.07.
Turning to A14C U20A G36C G40C, the self-cleavage amounted to 0.07.
On to A14G G29U G30A U34C C45A, for which the self-cleavage is 0.05.
For A14G G21U G22A the value was 0.58; for A14G U28C C37A, 0.06.
To A14C G19A U32G U38A C46U belongs 0.12.
Regarding A14G C23A G35C G44U, the self-cleavage turned out to be 0.06.
To A14C A16C C23G A41C belongs 0.03; to A14G G19A C46A, 0.39; to A14G G29U G30U G36A, 0.04.
In the case of A14C G19C G22C G29U G40A, the self-cleavage came to 0.03.
As to A14C G21A A24U, the self-cleavage was 0.03.
To A14C C18A C31A A39C belongs 0.05; to A14C C23G G30A U38A C46A, 0.02.
As to A14C G30C C45A, the self-cleavage came out at 0.06.
As to A14C A24U G35U A41U U43G, the self-cleavage was 0.08.
For the variant A14G C23G C45U, the self-cleavage was 0.62.
A14C G21C G22A C31U C46U: the self-cleavage came out at 0.03.
Take A14C G29A C31G: the self-cleavage is 0.02.
On to A14G A25G A26U U43C, for which the self-cleavage was found to be 0.01.
In the case of A14C C18G G36C, the self-cleavage came to 0.01.
To A14C G22U G36U U43A belongs 0.01.
